Data published in the supplement of paper PMC10369915.
This is one part of the list. No stated cut-off is given here; in the data, active = 3.2 or more and inactive = the rest. Only a few entries rise above the background.

molecular target: SHP2 C-SH2 domain E139D; test: enrichment score (SH2-bound / input frequency) (ratio); bacterial display of known human phosphotyrosine sites (pTyr-Var adds point mutants) read by sequencing; higher = stronger binding; tyrosines were phosphorylated by kinases first; conditions: peptide library: Human pTyr
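Further: displayed peptides selected on beads carrying the immobilized SH2 domain, with library peptides lacking any tyrosine serving as negative controls.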

Row | Binder | enrichment score
1 | SLIINTFYSNKEIFL [HSP90AA1_HUMAN_38] | active: 3.49
2 | DDITQEEYGEFYKSL [HSP90AB1_HUMAN_301] | inactive: 1.18
3 | EAHPNDLYVEGLPEN [GTF2I_HUMAN_503] | inactive: 1.1
4 | SYEEHIPYTHMNGGK [INSR_HUMAN_1361] | inactive: 1.11
5 | DIYETDYYRKGGKGL [INSR_HUMAN_1190] | inactive: 0.909
6 | DGPLGPLYASSNPEY [INSR_HUMAN_992] | inactive: 0.439
7 | SAALDPAYTTLEFEN [HNF4A_HUMAN_23] | inactive: 0.906
8 | EESEDPDYYQYNIQA [GTF2I_HUMAN_248] | inactive: 1.83
9 | ATATESQYQQQPGGG [HCK_HUMAN_522_YA] | inactive: 0.673
10 | ARALNRNYWEKKQEE [HGS_HUMAN_334_YA] | inactive: 1.21
11 | NEEYGEFYKSLTNDW [HS90A_HUMAN_313] | inactive: 0.692
12 | GAGGADDYNGANDGA [HNRH1_HUMAN_246_YA] | inactive: 0.539
13 | DVDLGDGYIMRGGGG [INAR2_HUMAN_512] | inactive: 0.639
14 | ESKEEDFYEDLDRFE [GUCY1B3_HUMAN_192] | inactive: 1.16
15 | EDTENWLYEDGEDQP [HSP74_HUMAN_660] | inactive: 1.32
16 | MEAPTTAYKKTTPIE [HCLS1_HUMAN_222] | inactive: 0.778
17 | AKPKVEMYSGSDDDD [IF2P_HUMAN_134] | inactive: 1.15
18 | KFSHSGRYMMTRDAL [2ABD_HUMAN_305_YA] | inactive: 2.98
19 | GFREVSFYYSEENKL [IGF1R_HUMAN_1280] | inactive: 1.59

molecular target: SHP2 C-SH2 domain wild-type; test: as above; conditions: peptide library: Human pTyr

Row | Binder | enrichment score
20 | SLIINTFYSNKEIFL [HSP90AA1_HUMAN_38] | active: 4.44
21 | DDITQEEYGEFYKSL [HSP90AB1_HUMAN_301] | inactive: 1.31
22 | EAHPNDLYVEGLPEN [GTF2I_HUMAN_503] | inactive: 0.68
23 | SYEEHIPYTHMNGGK [INSR_HUMAN_1361] | inactive: 1.14
24 | DIYETDYYRKGGKGL [INSR_HUMAN_1190] | inactive: 0.701
25 | DGPLGPLYASSNPEY [INSR_HUMAN_992] | inactive: 0.498
26 | SAALDPAYTTLEFEN [HNF4A_HUMAN_23] | inactive: 0.76
27 | EESEDPDYYQYNIQA [GTF2I_HUMAN_248] | inactive: 1.67
28 | ATATESQYQQQPGGG [HCK_HUMAN_522_YA] | inactive: 0.667
29 | ARALNRNYWEKKQEE [HGS_HUMAN_334_YA] | inactive: 1.3
30 | NEEYGEFYKSLTNDW [HS90A_HUMAN_313] | inactive: 0.587
31 | GAGGADDYNGANDGA [HNRH1_HUMAN_246_YA] | inactive: 0.486
32 | DVDLGDGYIMRGGGG [INAR2_HUMAN_512] | inactive: 0.528
33 | ESKEEDFYEDLDRFE [GUCY1B3_HUMAN_192] | inactive: 1.6
34 | EDTENWLYEDGEDQP [HSP74_HUMAN_660] | inactive: 1.08
35 | MEAPTTAYKKTTPIE [HCLS1_HUMAN_222] | inactive: 0.911
36 | AKPKVEMYSGSDDDD [IF2P_HUMAN_134] | inactive: 0.989
37 | KFSHSGRYMMTRDAL [2ABD_HUMAN_305_YA] | inactive: 3.06
38 | GFREVSFYYSEENKL [IGF1R_HUMAN_1280] | inactive: 1.57

molecular target: SHP2 N-SH2 domain L43F; test: as above; conditions: peptide library: Human pTyr

Row | Binder | enrichment score
39 | SLIINTFYSNKEIFL [HSP90AA1_HUMAN_38] | active: 3.62
40 | DDITQEEYGEFYKSL [HSP90AB1_HUMAN_301] | inactive: 1.39
41 | EAHPNDLYVEGLPEN [GTF2I_HUMAN_503] | inactive: 0.734
42 | SYEEHIPYTHMNGGK [INSR_HUMAN_1361] | inactive: 0.558
43 | DIYETDYYRKGGKGL [INSR_HUMAN_1190] | inactive: 0.845
44 | DGPLGPLYASSNPEY [INSR_HUMAN_992] | inactive: 0.877
45 | SAALDPAYTTLEFEN [HNF4A_HUMAN_23] | active: 3.79
46 | EESEDPDYYQYNIQA [GTF2I_HUMAN_248] | inactive: 1.5
47 | ATATESQYQQQPGGG [HCK_HUMAN_522_YA] | inactive: 0.626
48 | ARALNRNYWEKKQEE [HGS_HUMAN_334_YA] | inactive: 1.3
49 | NEEYGEFYKSLTNDW [HS90A_HUMAN_313] | inactive: 0.85
50 | GAGGADDYNGANDGA [HNRH1_HUMAN_246_YA] | inactive: 0.49
51 | DVDLGDGYIMRGGGG [INAR2_HUMAN_512] | inactive: 0.567
52 | ESKEEDFYEDLDRFE [GUCY1B3_HUMAN_192] | inactive: 1.43
53 | EDTENWLYEDGEDQP [HSP74_HUMAN_660] | inactive: 1.12
54 | MEAPTTAYKKTTPIE [HCLS1_HUMAN_222] | inactive: 1.14
55 | AKPKVEMYSGSDDDD [IF2P_HUMAN_134] | inactive: 1.12
56 | KFSHSGRYMMTRDAL [2ABD_HUMAN_305_YA] | inactive: 2.93
57 | GFREVSFYYSEENKL [IGF1R_HUMAN_1280] | inactive: 1.33

molecular target: SHP2 N-SH2 domain T42A; test: as above; conditions: peptide library: Human pTyr

Row | Binder | enrichment score
58 | SLIINTFYSNKEIFL [HSP90AA1_HUMAN_38] | active: 3.98
59 | DDITQEEYGEFYKSL [HSP90AB1_HUMAN_301] | inactive: 1.11
60 | EAHPNDLYVEGLPEN [GTF2I_HUMAN_503] | inactive: 0.717
61 | SYEEHIPYTHMNGGK [INSR_HUMAN_1361] | inactive: 0.586
62 | DIYETDYYRKGGKGL [INSR_HUMAN_1190] | inactive: 0.731
63 | DGPLGPLYASSNPEY [INSR_HUMAN_992] | inactive: 0.451
64 | SAALDPAYTTLEFEN [HNF4A_HUMAN_23] | active: 4.06
65 | EESEDPDYYQYNIQA [GTF2I_HUMAN_248] | inactive: 1.55
66 | ATATESQYQQQPGGG [HCK_HUMAN_522_YA] | inactive: 0.604
67 | ARALNRNYWEKKQEE [HGS_HUMAN_334_YA] | inactive: 1.37
68 | NEEYGEFYKSLTNDW [HS90A_HUMAN_313] | inactive: 0.852
69 | GAGGADDYNGANDGA [HNRH1_HUMAN_246_YA] | inactive: 0.546
70 | DVDLGDGYIMRGGGG [INAR2_HUMAN_512] | inactive: 0.509
71 | ESKEEDFYEDLDRFE [GUCY1B3_HUMAN_192] | inactive: 1.39
72 | EDTENWLYEDGEDQP [HSP74_HUMAN_660] | inactive: 1.08
73 | MEAPTTAYKKTTPIE [HCLS1_HUMAN_222] | inactive: 0.734
74 | AKPKVEMYSGSDDDD [IF2P_HUMAN_134] | inactive: 1.03
75 | KFSHSGRYMMTRDAL [2ABD_HUMAN_305_YA] | inactive: 3.06
76 | GFREVSFYYSEENKL [IGF1R_HUMAN_1280] | inactive: 1.27

molecular target: SHP2 N-SH2 domain T52S; test: as above; conditions: peptide library: Human pTyr

Row | Binder | enrichment score
77 | SLIINTFYSNKEIFL [HSP90AA1_HUMAN_38] | active: 3.72
78 | DDITQEEYGEFYKSL [HSP90AB1_HUMAN_301] | inactive: 1.2
79 | EAHPNDLYVEGLPEN [GTF2I_HUMAN_503] | inactive: 0.907
80 | SYEEHIPYTHMNGGK [INSR_HUMAN_1361] | inactive: 0.699
81 | DIYETDYYRKGGKGL [INSR_HUMAN_1190] | inactive: 0.666
82 | DGPLGPLYASSNPEY [INSR_HUMAN_992] | inactive: 0.52
83 | SAALDPAYTTLEFEN [HNF4A_HUMAN_23] | inactive: 3.19
84 | EESEDPDYYQYNIQA [GTF2I_HUMAN_248] | inactive: 2.11
85 | ATATESQYQQQPGGG [HCK_HUMAN_522_YA] | inactive: 0.654
86 | ARALNRNYWEKKQEE [HGS_HUMAN_334_YA] | inactive: 1.37
87 | NEEYGEFYKSLTNDW [HS90A_HUMAN_313] | inactive: 0.389
88 | GAGGADDYNGANDGA [HNRH1_HUMAN_246_YA] | inactive: 0.56
89 | DVDLGDGYIMRGGGG [INAR2_HUMAN_512] | inactive: 0.481
90 | ESKEEDFYEDLDRFE [GUCY1B3_HUMAN_192] | inactive: 1.45
91 | EDTENWLYEDGEDQP [HSP74_HUMAN_660] | inactive: 1.37
92 | MEAPTTAYKKTTPIE [HCLS1_HUMAN_222] | inactive: 0.819
93 | AKPKVEMYSGSDDDD [IF2P_HUMAN_134] | inactive: 1.31
94 | KFSHSGRYMMTRDAL [2ABD_HUMAN_305_YA] | active: 3.38
95 | GFREVSFYYSEENKL [IGF1R_HUMAN_1280] | inactive: 1.48

molecular target: SHP2 N-SH2 domain wild-type; test: as above; conditions: peptide library: Human pTyr

Row | Binder | enrichment score
96 | SLIINTFYSNKEIFL [HSP90AA1_HUMAN_38] | active: 4.62
97 | DDITQEEYGEFYKSL [HSP90AB1_HUMAN_301] | inactive: 1.45
98 | EAHPNDLYVEGLPEN [GTF2I_HUMAN_503] | inactive: 0.855
99 | SYEEHIPYTHMNGGK [INSR_HUMAN_1361] | inactive: 0.917
100 | DIYETDYYRKGGKGL [INSR_HUMAN_1190] | inactive: 0.869
101 | DGPLGPLYASSNPEY [INSR_HUMAN_992] | inactive: 0.44
102 | SAALDPAYTTLEFEN [HNF4A_HUMAN_23] | inactive: 0.963
103 | EESEDPDYYQYNIQA [GTF2I_HUMAN_248] | inactive: 1.88
104 | ATATESQYQQQPGGG [HCK_HUMAN_522_YA] | inactive: 0.627
105 | ARALNRNYWEKKQEE [HGS_HUMAN_334_YA] | inactive: 1.65
106 | NEEYGEFYKSLTNDW [HS90A_HUMAN_313] | inactive: 1.25
107 | GAGGADDYNGANDGA [HNRH1_HUMAN_246_YA] | inactive: 0.545
108 | DVDLGDGYIMRGGGG [INAR2_HUMAN_512] | inactive: 0.476
109 | ESKEEDFYEDLDRFE [GUCY1B3_HUMAN_192] | inactive: 2.14
110 | EDTENWLYEDGEDQP [HSP74_HUMAN_660] | inactive: 1.27
111 | MEAPTTAYKKTTPIE [HCLS1_HUMAN_222] | inactive: 0.968
112 | AKPKVEMYSGSDDDD [IF2P_HUMAN_134] | inactive: 1.32
113 | KFSHSGRYMMTRDAL [2ABD_HUMAN_305_YA] | active: 3.92
114 | GFREVSFYYSEENKL [IGF1R_HUMAN_1280] | inactive: 1.72
